The source of these data is the supplement of paper PMC8948288.

One data set has as its system H4. As to the kind of experiment: cell viability relative to siNT1 (ATP content); H4 human neuroglioma and GL261 mouse glioma; higher = less toxic. As to conditions: siRNA concentration 10 nM; 96 h; human.
In a further data set the test system is GL261. The description is as above. The note with it: siRNA concentration 25 nM; 96 h; mouse.

The sequences are guide strands of siRNAs; only the seed at positions 2 to 7 varies.
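Further: cells reverse transfected with siRNA duplexes via lipid reagent, ATP read by luminescence, triplicate wells, values scaled to mean viability with non-targeting control siNT1.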

A word on the cell viability: it is a read-out of living cells in per cent, often relative to untreated cells. Consider UCUGCUGACAUGUAAACCA, for which the cell viability worked out at 75.5% in the data set with H4 and 42.9% in the data set on GL261.
The like results for UCUGCUUACAUGUAAACCA were, in that order, 96.2% and 46.6%.
As for UCUGGAAACAUGUAAACCA, the cell viability is 78.3% in the data set with H4 and 44.1% in the data set on GL261.
For the sequence UCUGGACACAUGUAAACCA, the cell viability came out at 42.5% in the data set with H4 and 21.9% with GL261.
For UCUGGAGACAUGUAAACCA, the cell viability in the data set on H4 was determined as 93.8%; in the data set on GL261, 34%.
With UCUGGAUACAUGUAAACCA, the figures for the cell viability in the data set on H4 and with GL261 were 65.9% and 32.2%, respectively.
The like results for UCUGGCAACAUGUAAACCA were, in that order, 93.1% and 27.9%.
The like results for UCUGGCCACAUGUAAACCA were, in that order, 23.5% and 60.3%.
The like results for UCUGGCGACAUGUAAACCA were, in that order, 71.3% and 32.9%.
Take UCUGGCUACAUGUAAACCA: the cell viability turned out to be 38.2% in the data set with H4 and 24.2% in the data set with GL261.
Regarding UCUGGGAACAUGUAAACCA, the results for the cell viability in the data set on H4 and in the data set with GL261 were 33.8% and 15.6%, respectively.
The like results for UCUGGGCACAUGUAAACCA were, in that order, 2.37% and 14.2%.
The like results for UCUGGGGACAUGUAAACCA were, in that order, 23.6% and 17.6%.
The like results for UCUGGGUACAUGUAAACCA were, in that order, 14.4% and 33.6%.
For the sequence UCUGGUAACAUGUAAACCA, the cell viability in the data set on H4 and with GL261 was 80.2% throughout.
As to UCUGGUCACAUGUAAACCA, the cell viability stood at 42.3% in the data set with H4 and 32.6% in the data set on GL261.
The like results for UCUGGUGACAUGUAAACCA were, in that order, 76% and 56.2%.
Turning to UCUGGUUACAUGUAAACCA, the cell viability came out at 85.1% in the data set on H4 and 56.4% in the data set with GL261.
As for UCUGUAAACAUGUAAACCA, the cell viability amounted to 110% in the data set on H4 and 60.7% with GL261.
For the sequence UCUGUACACAUGUAAACCA, the figures for the cell viability in the data set on H4 and in the data set on GL261 were 85.6% and 34.6%, respectively.
The like results for UCUGUAGACAUGUAAACCA were, in that order, 91.2% and 65.6%.
With UCUGUAUACAUGUAAACCA, the cell viability turned out to be 94.2% in the data set with H4 and 46.9% with GL261.
Turning to UCUGUCAACAUGUAAACCA, the cell viability in the data set with H4 is 79.8%; in the data set on GL261 it was 66.7%.
For UCUGUCCACAUGUAAACCA, the cell viability is 52.4% in the data set on H4 and 32.6% with GL261.
Regarding UCUGUCGACAUGUAAACCA, the cell viability turned out to be 94% in the data set on H4 and 38.7% with GL261.
In the case of UCUGUCUACAUGUAAACCA, the cell viability in the data set on H4 stood at 90.3%; in the data set on GL261, 44.4%.
The like results for UCUGUGAACAUGUAAACCA were, in that order, 93.6% and 41.7%.
The like results for UCUGUGCACAUGUAAACCA were, in that order, 57.3% and 21.4%.
On to UCUGUGGACAUGUAAACCA, for which the figures for the cell viability with H4 and with GL261 were 44.2% and 35.7%, respectively.
For the sequence UCUGUGUACAUGUAAACCA, the cell viability with H4 was found to be 53.8%; in the data set with GL261, 20.4%.
Consider UCUGUUAACAUGUAAACCA, for which the results for the cell viability in the data set on H4 and in the data set with GL261 were 72.4% and 33.5%, respectively.
The like results for UCUGUUCACAUGUAAACCA were, in that order, 65.2% and 34.8%.
For UCUGUUGACAUGUAAACCA, the cell viability was 90.7% with H4 and 45.8% in the data set with GL261.
As for UCUGUUUACAUGUAAACCA, the cell viability is 88.5% in the data set on H4 and 39.8% in the data set on GL261.
As to UCUUAAAACAUGUAAACCA, the cell viability in the data set with H4 was 100%; in the data set with GL261 it was 83.4%.
The like results for UCUUAACACAUGUAAACCA were, in that order, 87.2% and 60.5%.
